Experimental data taken from paper PMC9638944, “ATM-mediated ELL phosphorylation enhances its self-association through increased EAF1 interaction and inhibits global transcription during genotoxic stress” (Nucleic Acids Research, 2022).
Substitutions are numbered along the chain they refer to. These are yes or no findings as the source states them, for the method shown. In cells and extracts the contact can be indirect. Some entries that bind do so weakly or less than the wild type. For some assays here: Sequences can lack the tags named with a protein.

The chains behind the UniProt entries cited, without tags or fusion partners. Where a name states a change or a piece, a line headed by the entry shows the natural chain unless it says otherwise.
UniProt P42568: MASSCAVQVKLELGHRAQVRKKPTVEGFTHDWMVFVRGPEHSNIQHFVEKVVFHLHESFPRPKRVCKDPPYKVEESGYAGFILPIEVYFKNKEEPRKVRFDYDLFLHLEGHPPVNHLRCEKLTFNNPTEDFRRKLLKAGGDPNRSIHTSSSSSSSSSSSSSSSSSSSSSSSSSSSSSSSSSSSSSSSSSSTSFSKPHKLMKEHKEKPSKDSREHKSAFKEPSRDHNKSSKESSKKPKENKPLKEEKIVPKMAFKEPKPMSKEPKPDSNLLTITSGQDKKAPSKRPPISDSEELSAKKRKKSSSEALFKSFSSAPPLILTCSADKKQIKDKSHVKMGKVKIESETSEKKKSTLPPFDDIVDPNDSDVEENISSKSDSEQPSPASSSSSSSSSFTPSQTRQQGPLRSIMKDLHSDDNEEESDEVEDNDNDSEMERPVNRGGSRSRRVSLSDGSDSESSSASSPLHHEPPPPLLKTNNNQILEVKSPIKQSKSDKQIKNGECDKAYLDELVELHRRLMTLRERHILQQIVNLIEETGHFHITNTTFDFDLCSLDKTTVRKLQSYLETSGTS
UniProt Q96CJ1: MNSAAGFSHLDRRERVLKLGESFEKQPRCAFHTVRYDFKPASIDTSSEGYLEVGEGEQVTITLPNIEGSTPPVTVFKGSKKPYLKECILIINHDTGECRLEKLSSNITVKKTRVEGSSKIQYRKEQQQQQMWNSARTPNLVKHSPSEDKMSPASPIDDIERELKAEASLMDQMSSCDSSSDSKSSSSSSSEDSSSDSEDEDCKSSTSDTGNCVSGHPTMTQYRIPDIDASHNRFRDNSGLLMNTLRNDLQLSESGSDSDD

How the values were obtained:
[1] = biological target: ELL•CDK9•SEC (Sf9) (human) (UniProt P55199+P50750); assay: co-IP; Sf9 cells co-infected with baculoviruses; second round of precipitation (His-CDK9, AF9 or FLAG-EAF1) from the eluate of the first round; bound material and supernatant immunoblotted
[2] = biological target: ELL•AF9•SEC (Sf9) (human) (UniProt P55199+P42568); assay: as above
FLAG-ELL (Sf9) (human) = biological target: T1, FLAG-ELL (Sf9) (human) (UniProt P55199); assay: co-IP; Sf9 cells co-infected with baculoviruses, lysis buffer with 300 mM KCl and 0.1% NP-40; first round of precipitation by the tagged ELL (FLAG-ELL or His-ELL), 12 h, 4°C; immunoblot
T1 sequence: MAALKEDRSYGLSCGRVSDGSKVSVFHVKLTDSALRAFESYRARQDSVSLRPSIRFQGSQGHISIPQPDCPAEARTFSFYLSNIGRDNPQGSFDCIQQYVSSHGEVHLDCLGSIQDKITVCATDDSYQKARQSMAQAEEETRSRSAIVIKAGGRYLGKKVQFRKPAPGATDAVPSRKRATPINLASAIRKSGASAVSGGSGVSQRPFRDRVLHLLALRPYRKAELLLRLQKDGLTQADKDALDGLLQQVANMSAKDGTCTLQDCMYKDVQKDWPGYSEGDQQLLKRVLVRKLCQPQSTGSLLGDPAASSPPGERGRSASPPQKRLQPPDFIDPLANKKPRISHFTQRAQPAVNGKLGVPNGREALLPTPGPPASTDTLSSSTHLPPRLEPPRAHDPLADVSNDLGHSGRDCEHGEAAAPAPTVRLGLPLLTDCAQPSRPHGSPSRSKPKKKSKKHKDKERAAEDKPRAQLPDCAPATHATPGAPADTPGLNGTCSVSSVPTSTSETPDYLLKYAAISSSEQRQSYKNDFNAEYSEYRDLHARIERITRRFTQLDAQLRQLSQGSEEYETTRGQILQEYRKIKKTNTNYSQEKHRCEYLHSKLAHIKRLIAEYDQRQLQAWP

[3] = biological target: ELL•EAF1 complex (Sf9) (human) (UniProt P55199+Q96JC9); assay: co-IP; Sf9 cells co-infected with baculoviruses; second round of precipitation (His-CDK9, AF9 or FLAG-EAF1) from the eluate of the first round; bound material and supernatant immunoblotted
His-ELL (Sf9) (human) = biological target: T2, His-ELL (Sf9) (human) (UniProt P55199); assay: co-IP; Sf9 cells co-infected with baculoviruses, lysis buffer with 300 mM KCl and 0.1% NP-40; first round of precipitation by the tagged ELL (FLAG-ELL or His-ELL), 12 h, 4°C; immunoblot
T2 sequence: T1 sequence

FLAG-ELL TM (human) = biological target: T3, FLAG-ELL TM (human) (UniProt P55199); assay: co-IP; 293T cells transiently expressing epitope-tagged proteins, harvested 48 h after transfection; lysis buffer 20 mM Tris-Cl pH 8, 20% glycerol, 2 mM EDTA, 150 mM KCl, 0.1% NP-40; anti-FLAG M2 or anti-HA agarose, 12 h, 4°C; immunoblot. Also the first round of the tandem purifications from 293T. Some panels with doxorubicin, IR, ATM inhibitor, EAF1 or EAF2 knock-down or over-expression
T3 sequence: T1 sequence with T551A, S561A, S589A

FLAG-ELL (human) = biological target: T4, FLAG-ELL (human) (UniProt P55199); assay: as above
T4 sequence: T1 sequence

[4] = biological target: T5, FLAG-ELL lacking the C-terminal 501–621 (human) (UniProt P55199); assay: as above
T5 sequence: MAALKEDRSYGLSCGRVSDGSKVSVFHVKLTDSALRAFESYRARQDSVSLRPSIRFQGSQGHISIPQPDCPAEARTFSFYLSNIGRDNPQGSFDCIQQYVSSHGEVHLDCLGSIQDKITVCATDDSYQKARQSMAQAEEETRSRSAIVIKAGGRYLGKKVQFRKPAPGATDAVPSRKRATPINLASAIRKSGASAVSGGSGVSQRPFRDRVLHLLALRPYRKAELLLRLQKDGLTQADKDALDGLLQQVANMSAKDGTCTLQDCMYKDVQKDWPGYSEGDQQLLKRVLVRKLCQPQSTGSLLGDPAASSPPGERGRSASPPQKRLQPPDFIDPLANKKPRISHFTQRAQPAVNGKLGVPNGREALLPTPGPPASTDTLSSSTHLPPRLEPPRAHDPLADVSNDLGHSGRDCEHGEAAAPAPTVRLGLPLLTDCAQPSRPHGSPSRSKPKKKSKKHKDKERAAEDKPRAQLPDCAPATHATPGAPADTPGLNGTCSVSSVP

[5] = biological target: ELL•CDK9•SEC (293T) (human) (UniProt P55199+P50750); assay: co-IP; tandem affinity purification from 293T cells: second round (His-CDK9, or the second tagged ELL) from the eluate of the first round; immunoblot
[6] = biological target: T6, endogenous ELL (human (endogenous in 293T)) (UniProt P55199); assay: co-IP; endogenous proteins from 293T whole cell lysate in BC150 buffer with 0.1% NP-40; target-specific antibody on protein-G magnetic beads, 12 h, 4°C; species-specific IgG as control; some panels after doxorubicin
T6 sequence: T1 sequence

[7] = biological target: T6, endogenous ELL (human (endogenous in 293T)); assay: co-sedimentation; nuclear extract of 293T cells on a 4–20% glycerol gradient, 40K RPM, 8 h, 4°C; fractions immunoblotted

EAF1 (Sf9) (from UniProt Q96JC9 1-268)
binding [1]: no binding
binding [2]: no binding
binding (FLAG-ELL (Sf9) (human)): binds

EAF2 (Sf9) (from UniProt Q96CJ1 1-260)
binding [3]: no binding
binding (His-ELL (Sf9) (human)): binds

endogenous EAF1 (from UniProt Q96JC9 1-268)
binding (FLAG-ELL TM (human)): binds
binding (FLAG-ELL (human)): binds
binding [4]: no binding
binding [5]: no binding
binding [6]: binds
binding [7]: binds
